Tested on: Sodium Channel, Site 2
Settings: 30,000 nM

For `CC(=O)N[C@@H]1C[C@H](NC(C)(C)C)CC[C@@H]1N1CC[C@H](Nc2ncnc3cc(C(C)(C)C)nn23)C1=O` [Example 1, N-((1R,2 S,5R)-5-(tert-Butylamino)-2-((S)-3-(7-tert-butylpyrazolo[1,5-a][1,3,5]triazin-4-ylamino)-2-oxopyrrolidin-1-yl)cyclohexyl)acetamide], the “Na+ channel binding (% inhibition)” value was 46%, 30,000.

Source: patent publication US8618101B2, “N-((1R,2S,5R)-5-(tert-butylamino)-2-((S)-3-(7-tert-butylpyrazolo[1,5-a][1,3,5]triazin-4-ylamino)-2-oxopyrrolidin-1-yl)cyclohexyl)acetamide, a dual modulator of chemokine receptor activity, crystalline forms and processes” (Bristol-Myers Squibb Company, priority 2009, dated 2013)
